Structures can show the parent of a compound that is named as a salt. The list shows a part of the results. Many values rest on one well or one pass, so single values are uncertain.
Experiments:
Test in all cases: proliferation Z-score within cell line (SRB, relative to all inhibitors screened on that line); triple-negative breast cancer lines and a kinase inhibitor library; SRB is the sulforhodamine B protein stain; higher = less growth inhibition (more resistant)
Conditions in all cases: concentration: 1 µM; 4 days
Bt20 = system: Bt20
Bt549 = system: Bt549
HCC1143 = system: HCC1143
HCC1806 = system: HCC1806
HCC1937 = system: HCC1937
HCC38 = system: HCC38
HCC70 = system: HCC70
Hs578T = system: Hs578T
MDA-MB-231 = system: MDA-MB-231
MDA-MB-435s = system: MDA-MB-435s
MDA-MB-436 = system: MDA-MB-436
MDA-MB-453 = system: MDA-MB-453
MDA-MB-468 = system: MDA-MB-468
SKBR7 = system: SKBR7
SUM1315MO2 = system: SUM1315MO2
SUM149PT = system: SUM149PT
SUM159PT = system: SUM159PT
SUM185PE = system: SUM185PE
SUM229PE = system: SUM229PE
SUM52PE = system: SUM52PE
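Further: Single-dose primary screen of a 378-member kinase inhibitor library in 96-well plates, with growth read as absorbance of protein-bound SRB dye after TCA fixation.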

Compound | proliferation Z-score within cell line (Bt20) | proliferation Z-score within cell line (Bt549) | proliferation Z-score within cell line (HCC1143) | proliferation Z-score within cell line (HCC1806) | proliferation Z-score within cell line (HCC1937) | proliferation Z-score within cell line (HCC38) | proliferation Z-score within cell line (HCC70) | proliferation Z-score within cell line (Hs578T) | proliferation Z-score within cell line (MDA-MB-231) | proliferation Z-score within cell line (MDA-MB-435s) | proliferation Z-score within cell line (MDA-MB-436) | proliferation Z-score within cell line (MDA-MB-453) | proliferation Z-score within cell line (MDA-MB-468) | proliferation Z-score within cell line (SKBR7) | proliferation Z-score within cell line (SUM1315MO2) | proliferation Z-score within cell line (SUM149PT) | proliferation Z-score within cell line (SUM159PT) | proliferation Z-score within cell line (SUM185PE) | proliferation Z-score within cell line (SUM229PE) | proliferation Z-score within cell line (SUM52PE)
CNC(=O)Nc1ccc(-c2nc(N3CC4CCC(C3)O4)c3cnn(C4CCC5(CC4)OCCO5)c3n2)cc1 | -1.67 | -2.07 | -1.97 | -1.47 | -1.92 | -2.23 | -2 | -2.11 | -1.42 | -1.57 | -1.66 | -1.55 | -1.41 | -1.83 | -1.44 | -1.28 | -1.81 | -1.6 | -1.7 | -1.22
CC(C)(C)c1nc(-c2cccc(NS(=O)(=O)c3c(F)cccc3F)c2F)c(-c2ccnc(N)n2)s1 | 0.492 | 0.0501 | 0.849 | 0.7 | 0.64 | 0.679 | 0.542 | 0.601 | -0.0358 | -1.45 | -0.307 | 0.439 | -0.0741 | 0.0634 | -0.216 | -0.166 | 0.628 | 0.384 | 1.5 | -0.459
O=c1cc(CN2CCOCC2)occ1OCCCCCSc1ccnc2cc(C(F)(F)F)ccc12 | -0.99 | -1.02 | -0.224 | -1.49 | -1.06 | -2.16 | -0.447 | -1.28 | 0.674 | -0.0717 | -0.459 | -1.66 | -0.339 | -1.36 | -0.528 | -0.0899 | -0.314 | -0.686 | -0.302 | -0.348
CO[C@H]1C[C@@H]2CC[C@@H](C)[C@@](O)(O2)C(=O)C(=O)N2CCCC[C@H]2C(=O)O[C@H]([C@H](C)C[C@@H]2CC[C@H](n3cnnn3)[C@H](OC)C2)CC(=O)[C@H](C)/C=C(\C)[C@@H](O)[C@@H](OC)C(=O)[C@H](C)C[C@H](C)/C=C/C=C/C=C/1C [Zotarolimus(ABT-578)] | -1.37 | -1.42 | -0.847 | 0.502 | -1.82 | -0.442 | -2.22 | -2.37 | -0.846 | -0.985 | -1.5 | -1.78 | -1.03 | -1.66 | -0.628 | -0.568 | -0.85 | -1.27 | -1.19 | -1.27
C#Cc1cccc(Nc2ncnc3cc4c(cc23)OCCOCCOCCO4)c1 [Icotinib] | -0.346 | 0.647 | -0.46 | -0.95 | -0.342 | 0.312 | 0.361 | 0.382 | 0.51 | 0.727 | 0.234 | 0.754 | -0.479 | 0.51 | 0.423 | -0.469 | 0.264 | 0.206 | -0.385 | 0.478
Cc1nc(Nc2ncc(C(=O)Nc3c(C)cccc3Cl)s2)cc(N2CCN(CCO)CC2)n1 [Dasatinib] | -0.368 | -1.67 | -0.834 | -2.57 | -0.617 | -3.28 | 0.452 | -2.65 | -2.29 | 0.315 | 0.0152 | 0.552 | 0.473 | -1.44 | -1.76 | -2.14 | 0.103 | 1.17 | -1.85 | 0.327
CS(=O)(=O)c1cccc(CNc2nc(Nc3ccc4c(c3)CCC(=O)N4)ncc2C(F)(F)F)c1 | 0.745 | 0.493 | 0.842 | -0.171 | -0.861 | 0.533 | -1.76 | 0.622 | 0.379 | 0.382 | -0.403 | 0.894 | 0.872 | 0.35 | 0.104 | 0.37 | 0.616 | -0.263 | 0.535 | -1.08
Cn1cc(-c2ccc3ncc(Cc4ccc5ncccc5c4)n3n2)cn1 | 0.496 | 0.803 | 0.785 | 0.636 | 0.673 | 0.653 | 0.708 | 0.871 | 0.677 | 0.985 | 1.04 | 1.06 | -0.381 | 0.972 | 0.797 | 0.875 | 0.635 | 0.778 | 0.82 | 0.893
Cc1cc(Nc2nc(N[C@@H](C)c3ccc(F)cc3)c(C#N)cc2F)n[nH]1 | -2.11 | -1.1 | 0.41 | 0.332 | 0.882 | -2.2 | 0.588 | -1.74 | -1.26 | -1.29 | 0.434 | -1.73 | -1.77 | -2 | -1.87 | -1.46 | 0.353 | -1.1 | -1.27 | -1.4
Cc1c(NC(=O)c2ccc(C(C)(C)C)cc2)cccc1-c1cn(C)c(=O)c(Nc2ccc(C(=O)N3CCOCC3)cc2)n1 | 0.297 | 0.378 | 0.716 | 0.618 | 0.827 | 0.544 | 0.556 | 0.446 | 0.48 | 0.618 | 0.258 | 0.777 | 0.723 | 0.304 | -0.124 | 0.629 | 0.574 | 0.237 | 0.701 | 0.0607
Cc1ccc(NC(=O)c2ccc(CN3CCN(C)CC3)cc2)cc1Nc1nccc(-c2cccnc2)n1 [Imatinib Mesylate (STI571)] | 0.246 | 0.527 | 0.49 | 0.678 | 0.691 | 0.0856 | 0.424 | 0.388 | 1.08 | 0.685 | 0.375 | 0.449 | 1.1 | -0.235 | 0.817 | 0.663 | 0.408 | 0.695 | 0.492 | 1.02
CC1COCCN1c1cc(C2(S(C)(=O)=O)CC2)nc(-c2cccc3[nH]ccc23)n1 (stereo not given) | -2.09 | -2.2 | -1.24 | -1.9 | -2.27 | -0.878 | -2.58 | -1.66 | -0.763 | -0.715 | -1.99 | -1.32 | -1.33 | -1.35 | -1.28 | -2 | -2.01 | -1.78 | -1.81 | -1.42
C=CC(=O)N1CCC[C@@H](n2nc(-c3ccc(Oc4ccccc4)cc3)c3c(N)ncnc32)C1 | 0.263 | 0.885 | 0.152 | -0.972 | -0.613 | 0.677 | 0.765 | 0.782 | 1.03 | 0.923 | 0.784 | -0.91 | -0.866 | 0.667 | 1.05 | 0.28 | 0.755 | 0.97 | 0.464 | 0.751
Cc1ccc(-n2nc(C(C)(C)C)cc2NC(=O)Nc2ccc(OCCN3CCOCC3)c3ccccc23)cc1 [BIRB 796 (Doramapimod)] | 1.06 | 0.733 | 0.589 | 1.41 | 0.414 | 0.639 | 0.67 | 0.698 | 0.751 | 0.881 | 0.636 | 0.851 | 1.15 | 0.376 | 0.485 | 0.889 | 0.769 | 0.74 | 1.51 | 0.858
Cn1cc(-c2ccc3nnc(Sc4ccc5ncccc5c4)n3n2)cn1 | 1.03 | 0.707 | 0.879 | 0.933 | 0.77 | 0.512 | 0.776 | 0.664 | 0.885 | 0.912 | 0.817 | 1.05 | 1.09 | 1.8 | 1.13 | 0.65 | 0.571 | 1.62 | 0.563 | 1.35
Cc1cc2c(F)c(Oc3ncnn4cc(OC[C@@H](C)O)c(C)c34)ccc2[nH]1 | 0.643 | 0.82 | 0.913 | 0.904 | 0.83 | 0.63 | 0.895 | 0.678 | 0.29 | 1.2 | 0.749 | 1.11 | 0.786 | 1.46 | 0.018 | 0.702 | 0.62 | -0.424 | 0.748 | -0.138
C[S+]([O-])c1ccc(-c2nc(-c3ccc(F)cc3)c(-c3ccncc3)[nH]2)cc1 (stereo not given) | 0.882 | 0.13 | -2.44 | 0.96 | -2.79 | 0.574 | -2.19 | 0.703 | 0.761 | 0.716 | -2.65 | 0.306 | 1.18 | -0.76 | 0.493 | 0.914 | 0.326 | 0.313 | 0.739 | 0.64
CS(=O)(=O)c1ccc(-c2cnc(N)c(C(=O)Nc3ccccc3)n2)cc1 | 0.935 | 0.259 | 0.515 | 0.411 | 0.657 | 0.417 | 0.554 | 0.529 | 0.761 | 0.734 | 0.713 | 0.373 | 0.321 | 0.457 | 1.04 | 0.966 | 0.399 | 0.57 | 0.849 | 0.974
Cc1cc(CN2CCN(c3c(Br)cnc4nc(-c5ccc(N6CCN(C)CC6)cc5)[nH]c34)CC2)no1 | -1.08 | 0.766 | 0.842 | 1.02 | 0.753 | 0.606 | 0.814 | 0.785 | -0.415 | 0.275 | 0.997 | 1.12 | -1.28 | 0.849 | -0.51 | 0.498 | 0.629 | -0.279 | 0.232 | -1.16
CCCCCCCCCCCCc1ccc(S(=O)(=O)Nc2nncs2)cc1 | 0.965 | 0.751 | 0.73 | 0.918 | 0.335 | 0.566 | 0.419 | 0.585 | 0.99 | 0.858 | 0.719 | 0.901 | 1.17 | 1.25 | 1.09 | 0.59 | 0.504 | 1.25 | 0.694 | 1.34
Cc1cc(C(=O)NOCCO)c(Nc2ccc(I)cc2F)n(C)c1=O | -0.333 | -0.319 | -2.07 | -1.47 | -0.224 | -0.866 | -0.379 | -1.07 | -1.76 | -1.62 | -0.173 | -1.28 | -1.11 | -0.206 | -0.264 | -2.14 | -1.16 | -1.08 | -2.1 | -1.25
O=C(NCc1ccccc1)c1csc(Nc2ccncn2)n1 [Thiazovivin] | 0.498 | 0.094 | 0.651 | 0.293 | 0.634 | 0.274 | 0.509 | 0.292 | 0.795 | 0.72 | 0.998 | 0.718 | 0.79 | -0.257 | 0.63 | 0.631 | 0.478 | 1.25 | 0.837 | 1.62
Cc1c(Cn2c(C)nc3c(C(=O)O)cc(N4CCOCC4)cc32)cccc1C(F)(F)F | 0.475 | -0.248 | 0.23 | -0.374 | -0.329 | 0.0539 | -0.835 | 0.33 | 0.792 | 0.413 | -0.187 | 0.419 | 0.0332 | 0.157 | 0.131 | 0.582 | 0.297 | 0.51 | 0.147 | -0.155
O=C1NC(=O)/C(=C/c2ccc(-c3ccc(F)cc3O)o2)S1 | 0.721 | 0.699 | 0.775 | 0.695 | 0.696 | 0.477 | 0.739 | 0.783 | 0.976 | 0.659 | 0.555 | 0.834 | 0.768 | 0.401 | 1.15 | 0.994 | 0.543 | 0.778 | 0.817 | 1.09
CC[C@H](Nc1ncnc2[nH]cnc12)c1nc2cccc(F)c2c(=O)n1-c1ccccc1 [CAL-101 (Idelalisib, GS-1101)] | 0.653 | 0.366 | 0.787 | 0.0855 | 0.763 | 0.465 | 0.623 | 0.518 | 0.961 | 0.725 | 0.698 | 0.78 | 0.372 | 1.03 | 0.376 | 0.732 | 0.542 | 0.676 | 0.453 | 0.724

Reference: the supplement of paper PMC6746778
